Source: the supplement of paper PMC10338343
± gives the standard deviation. The entries are a selection whose mix differs from that of the whole data set.

Tested on: MIWI (PIWIL1) piRISC loaded with L1MC piRNA (30 nt)
Test: pre-steady-state target cleavage rate (min^-1); MIWI and MILI are mouse PIWI proteins and EfPiwi is from a freshwater sponge; tags in brackets are library labels; higher = faster piRNA-guided slicing of the target
Conditions: guide: L1MC piRNA 5'p-UAACUAAAUACUAUGCAAGCUGUAGGUCCU
Summary of the method: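 In this Cleave-'n-Seq assay, uncleaved targets were sequenced and normalised to depth and to weakly complementary targets. They came from a transcribed, DNA-blocked target RNA library […] mixed with 1 nM active affinity-purified piRISC carrying one synthetic guide, with or without 500 nM GTSF1 partner protein, in HEPES–potassium acetate buffer at 33 °C for 0–8 or 0–960 min. After three trials were pooled and k3 was capped at 0.0001 min^-1, the pre-steady-state cleavage rate was obtained from a burst-and-steady-state fit.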

[1] = auxiliary factor: 500 nM mouse GTSF1
[2] = auxiliary factor: none (no GTSF1)
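Note: 1 nM active piRISC with 0.1 nM target library at 33 °C single turnover.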

Sequence	pre-steady-state target cleavage rate [1]	pre-steady-state target cleavage rate [2]
UCCUGGAUCAGCUUGCAUAGAAUUUAGAAA	0.148 ± 0.028	0.00575 ± 0.0031
UCCUCCUACAGCUUGCAUAGUAGUUUAGUUA	0.443 ± 0.021	0.00927 ± 0.0027
UCCUGGAUCACCUUGCAUAGUAUAUAGUUA	0.166 ± 0.029	0.00611 ± 0.0029
UCCUGGAUCAGCUUGCAUAGUAUUUUGAAA	0.364 ± 0.054	0.00971 ± 0.003
UGGAGGAACAGCUUGCAUAGUAUUUACAAA	0.216 ± 0.034	0.00526 ± 0.0019
UCCUGGAACACCUUGCAUAGUAUUUACUUA	0.155 ± 0.034	0.00856 ± 0.0028
UGGAGGUACAGCUUGCAUAGUAUUUAGAAA	0.369 ± 0.052	0.0114 ± 0.0031
UGGACCUACAGGUUGCAUACUAUUUAGUUA	0.196 ± 0.018	0.0212 ± 0.004
UCCUGGAUGUGCUUGCAUAGGAUUUAGUUA	0.00451 ± 0.0028	0.00354 ± 0.0033
UCCUGGUACAGCGUUGCAUAGUAUUUAGUUA	0.434 ± 0.053	0.0209 ± 0.0044
UGGAGCUACUGCUUGCAUAGUAUUUAGUUA	1.09 ± 0.055	0.0621 ± 0.0085
AGGACCUACAGGUUGCAUAGAAUUUAGUUA	0.341 ± 0.03	0.016 ± 0.0037
UCCUGGAUCAGCUUGCAUAGAAUUUACUUA	0.0972 ± 0.025	0.0151 ± 0.0061
UCCUGGUACAGCUUGCAAAGUAUUUAGUAA	0.311 ± 0.039	0.0192 ± 0.0039
UCGAGCUACAGCUUCCAUAGUAUUUAGUUA	0.0907 ± 0.021	0.00301 ± 0.0022
UCCUGGAUGAGCAUGGAUAGUAUUUAGUUA	0.475 ± 0.042	0.0081 ± 0.0031
UCCUGGUACAGCUUGCAUUGAAUUUAGUUA	0.114 ± 0.02	0.00906 ± 0.002
AGGACCUACAGCUUGCAUAGUAUUUUGAAA	0.436 ± 0.049	0.0119 ± 0.005
UGGACGAACAGCUUGCAUAGUAUUUAGUAA	0.859 ± 0.067	0.0613 ± 0.012
UCCACCUACAGCUUGCUUAGUAUUUAGUAA	0.484 ± 0.044	0.0103 ± 0.0023
UCCACCUACAGCUUGCAUAGUAUUUCGUUA	0.455 ± 0.054	0.0257 ± 0.006
AGGACCUACUGCUUGCAAAGUAUUUAGUUA	1.11 ± 0.057	0.0455 ± 0.0095
AGGACGUACAGGUUGCAUAGUAUUUAGUUA	1.03 ± 0.054	0.0401 ± 0.0057
UCCUGGAACAGCUUGCAUAGUAUUAACUUA	0.135 ± 0.027	0.00545 ± 0.0032
UCCUGCUACAGCUUGGAUACUAUUUAGUUA	0.339 ± 0.037	0.02 ± 0.004
UCCUGGAUCAGCUUGCAUAGUAUUUAGUGA	0.896 ± 0.04	0.0419 ± 0.0085
UCCUGGUACAGCUUGGCAUAGUAUUUAGUUA	0.676 ± 0.14	0.0102 ± 0.0041

Sequence	pre-steady-state target cleavage rate [1]	pre-steady-state target cleavage rate [2]
UCCUGGUACACCUUGCAUAGUAAUUAGUUA	0.546 ± 0.1	0.00728 ± 0.0025
UCCUGGUACAGCUUGCAAAGUAUUUAGAAA	0.17 ± 0.054	0.004 ± 0.0037
UCCUGCUAGAGCAUGCAUAGUAUUUAGUUA	0.62 ± 0.043	0.0119 ± 0.0032
UCCUGGUACAGCUUGCAUAGUAUUAACUUA	0.114 ± 0.028	0.00581 ± 0.0019
UCCUGGAUCAGCUUGCAUAGUAUCUUAGUUA	0.735 ± 0.032	0.01 ± 0.0035
UGGACCUACAGCUUGGAUAGUAUUUACAAA	0.0553 ± 0.011	0.00372 ± 0.0023
UCCUGGAUGUGCUUGCAUAGUAUUUAGUUA [g2:g20:cont:t1A]	0.497 ± 0.03	0.043 ± 0.0088
AGGACCUACAGCAUGCAUAGUAAUUAGUUA	0.788 ± 0.053	0.0148 ± 0.0027
UCCUCCUACAGCAAGCAUAGUAUUUAGUUA	1.21 ± 0.072	0.00412 ± 0.0014
UCCUGGUACAGCAUGCAUAGUAAUUAGUUA	0.457 ± 0.054	0.0118 ± 0.0031
UGGACCUACAGGUUGCAUAGUAUUAAGUUA	0.494 ± 0.045	0.0148 ± 0.0033
UCCUGGAACAGCUUGCAUAGUAUUUAUGUUA	0.301 ± 0.025	0.0253 ± 0.0047
UCGACCUACUAGCUUGCAUAGUAUUUAGUUA	0.784 ± 0.042	0.0512 ± 0.01
UCCACCUACAGCUUGCAUCGUAUUUAGUUA	0.455 ± 0.015	0.0298 ± 0.0056
UCCUGGAUGUGCUGCAUAGUAUUUAGUUA	0.0143 ± 0.0034	0.00446 ± 0.0032
UCCUGCUACAGCUUGCAUAGUAAAUAGUUA	0.428 ± 0.052	0.00667 ± 0.0021
UCCUGGAUGAGCUUGCAUAGUAUUUUGUAA	0.12 ± 0.027	0.0108 ± 0.0031
UCCACCUACAGCUUGCAAUGUAUUUAGUUA	0.552 ± 0.034	0.00492 ± 0.0019
UCCUGGAUCAGCUUGCAAUGUAUUUAGUAA	0.0391 ± 0.0083	0.00427 ± 0.0027
UCCUGCUACAGCUUGGAUAGAAUUUAGUUA	0.356 ± 0.046	0.0126 ± 0.0037
UCCUGGUACAGCAAGCAUAGUAUUUAGUUA	0.644 ± 0.042	0.00321 ± 0.0015
UCCUGGAUGAGCUUGCAUAGAAUUAAGUUA	0.0363 ± 0.0098	0.00457 ± 0.0032
UCCUCCAACACCUUGCAUAGUAUUUAGUUA	0.699 ± 0.053	0.0263 ± 0.0048
UCCUGCUACACGAUGCAUAGUAUUUAGUUA	0.674 ± 0.037	0.00371 ± 0.0021
UCCUCCUACAGCUUGCAAAGUAUUUAGAUA	0.313 ± 0.04	0.00839 ± 0.0022
UCCUGCUACUGCUUGCAUAGUAUUUAGAUA	0.192 ± 0.032	0.00766 ± 0.002
UCGACCUACAGCUUGCAUAGUCAUUUAGUUA	0.14 ± 0.044	0.00403 ± 0.0035
